Laboratory results published in the supplement of paper PMC10502849.
Counter-ions that a name gives are not always drawn. The list shows a part of the results. Most values come without repeats; read them as rough.

What was measured:
[1] = test system: H9 teratoma-derived LAM model cells, TSC2-/-; assay: percent SyTOX+ dead cells; higher = more cytotoxic; conditions: 5 µM, treatment time 72 h, culture: 3D hyaluronic acid hydrogel
[2] = test system: H9 teratoma-derived LAM model cells, WT; assay: percent SyTOX+ dead cells; higher = more cytotoxic; conditions: 5 µM, treatment time 72 h, culture: 3D hyaluronic acid hydrogel, genotype: WT
[3] = test system: H9 teratoma-derived LAM model cells, TSC2-/-; assay: percent of cells invaded past median invasion distance of vehicle control; LAM is lymphangioleiomyomatosis; the cells come from teratomas of the human stem cell line H9; higher = more invasion; extreme values may be limits of the assay; conditions: 5 µM, treatment time 72 h, culture: 3D hyaluronic acid hydrogel
[4] = test system: H9 teratoma-derived LAM model cells, WT; assay: as above; conditions: 5 µM, treatment time 72 h, culture: 3D hyaluronic acid hydrogel, genotype: WT
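Throughout, for percent SyTOX+ dead cells: cells seeded atop a hyaluronic acid gel crosslinked via MMP-cleavable peptides, containing vitronectin peptides and methylcellulose, imaged live by high-content microscopy with automated analysis, one technical replicate per compound.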
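Throughout, for percent of cells invaded past median invasion distance of vehicle control: live cells imaged by high content microscopy and scored with in-house automated image analysis, one technical replicate per compound in each genotype and rapamycin condition.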

Compound | percent SyTOX+ dead cells ([1]; rapamycin 0 nM) [%] | percent SyTOX+ dead cells ([1]; rapamycin 20 nM) [%] | percent SyTOX+ dead cells ([2]; rapamycin 0 nM) [%] | percent SyTOX+ dead cells ([2]; rapamycin 20 nM) [%] | percent ([3]; rapamycin 0 nM) [%] | percent ([3]; rapamycin 20 nM) [%] | percent ([4]; rapamycin 0 nM) [%] | percent ([4]; rapamycin 20 nM) [%]
CN(C)c1cc2c(Nc3ccc4c(cnn4Cc4ccccc4)c3)ncnc2cn1 | 11 | 13.6 | 12.6 | 15.1 | 52.2 | 36.1 | 27.6 | 44.8
O=C(O)c1ccc(-c2c[nH]c3ncc(-c4ccccc4)cc23)cc1C1CCCC1 | 20.6 | 19.8 | 30.6 | 33.2 | 18.6 | 8.99 | 4.26 | 11.2
Cc1nc(N)sc1-c1ccnc(Nc2ccc(N3CCOCC3)cc2)n1 | 31.9 | 30.2 | 67.7 | 58.7 | 5.88 | 6.6 | 0.77 | 0
O=C(O)c1ccc2c3c1cccc3c(=O)n1c3ccccc3nc21 [STO-609 acetic acid] | 5.23 | 8.66 | 14.4 | 19.2 | 45.1 | 25.2 | 19.3 | 16
Cn1cccc1/C=C1\C(=O)NC(=O)c2ccccc21 | 3.32 | 11.6 | 9.72 | 11.5 | 90 | 39.3 | 38.9 | 41.2
O=C(Nc1cccc2cccnc12)c1ccc(N2C(=O)[C@@H]3[C@H](C2=O)[C@H]2C=C[C@@H]3C2)cc1 | 5.04 | 9.12 | 5.94 | 9.22 | 51 | 43.4 | 65.1 | 70.6
CCn1c(=O)c(-c2cc[nH]n2)cc2c(C)nc(N)nc21 | 5.22 | 3.8 | 8.74 | 11.2 | 93 | 60.8 | 77.1 | 44.6
Oc1ccc(-c2ccc(-c3cc(Nc4ccc(CNC5CC5)cc4)n[nH]3)cc2)c(O)c1 [TCS 2312 dihydrochloride] | 34.4 | 39.2 | 44.8 | 37 | 0 | 0 | 1.15 | 0
CC(=O)c1c(C)c2cnc(Nc3ccc(N4CCNCC4)cn3)nc2n(C2CCCC2)c1=O | 12.9 | 7.41 | 13 | 10.4 | 21.1 | 13 | 6.95 | 14.5
CC(C)C[C@H](NC(=O)[C@H](CCc1ccccc1)NC(=O)CN1CCOCC1)C(=O)N[C@@H](Cc1ccccc1)C(=O)N[C@@H](CC(C)C)C(=O)[C@@]1(C)CO1 [Carfilzomib, PR-171, ONO-7057] | 45.3 | 46.8 | 22.4 | 14 | 1.04 | 3.65 | 3.17 | 1.3
O=C(O)[C@]1(Cc2cccc(Nc3nccs3)n2)CC[C@@H](Oc2cccc(Cl)c2F)CC1 | 18.5 | 10.5 | 38 | 25.3 | 54 | 46.2 | 20.7 | 12.6
COc1cc2ncnc(Nc3ccc(O)cc3)c2cc1OC [Janex-1, WHI-P131] | 17.6 | 13.1 | 15.3 | 13.1 | 19.2 | 8.74 | 9.05 | 25.3
Cn1cc(/C=C/C(=O)c2cccc(F)c2)cc1/C=C/C(=O)NO | 21.4 | 43.5 | 39.9 | 26.8 | 71 | 40.3 | 25.3 | 35
c1ccc(-c2n[nH]c3c2oc2ccccc23)cc1 | 9.76 | 14.6 | 23.9 | 15.6 | 23.6 | 27.3 | 1.41 | 2.75
CN(C)CCOc1cc(-c2cn[nH]c2)ccc1NC(=O)C1COc2ccccc2O1 (stereo not given) | 18.6 | 19.3 | 41.4 | 43.4 | 0.48 | 6.42 | 0.59 | 2.04
Cc1cc(Nc2nc(N[C@@H](C)c3ccc(F)cc3)c(C#N)cc2F)n[nH]1 | 59.8 | 62.8 | 75.5 | 63.6 | 3.77 | 11.5 | 0 | 0
C=CC(=O)Nc1cc2c(Nc3ccc(F)c(Cl)c3)ncnc2cc1OCCCN1CCOCC1 | 30.6 | 39.1 | 68.8 | 62.3 | 0 | 0 | 0 | 1.64
O=C(Nc1nc2ccccc2n1CCN1CCOCC1)c1cccc([N+](=O)[O-])c1 [IRAK-1/4 Inhibitor I] | 8.53 | 7.33 | 9.4 | 15.6 | 66.7 | 31.5 | 38.7 | 33.5
Cc1csc(NC(=O)CSc2nc3c(c(C(F)(F)F)c2C#N)CCC3)n1 [Irestatin 9389] | 14 | 8.64 | 13.8 | 13.7 | 66.7 | 42.3 | 19.1 | 29.7
c1ccc(-c2[nH]ncc2-c2ccnc3ccccc23)nc1 | 10.3 | 19.1 | 20.8 | 11.9 | 40.2 | 23 | 19.6 | 22
Cc1cc([C@@H](C)Nc2ccccc2C(=O)O)c2nc(N3CCOCC3)cc(=O)n2c1 | 5.93 | 5.41 | 29.9 | 20.8 | 51.7 | 36.9 | 63 | 27
Cc1ccc(C(=O)Cn2c3c(sc2=N)CCCC3)cc1 [Pifithrin-alpha] | 13.5 | 3.66 | 12.7 | 9.39 | 92.4 | 47.6 | 51.4 | 25.8
CC#CC(=O)Nc1cc2c(Nc3ccc(F)c(Cl)c3)ncnc2cn1 | 10.5 | 8.54 | 15.1 | 15.8 | 10.8 | 6.1 | 20.3 | 6.42

Compound | percent SyTOX+ dead cells ([1]; rapamycin 0 nM) [%] | percent SyTOX+ dead cells ([1]; rapamycin 20 nM) [%] | percent SyTOX+ dead cells ([2]; rapamycin 0 nM) [%] | percent SyTOX+ dead cells ([2]; rapamycin 20 nM) [%] | percent ([3]; rapamycin 0 nM) [%] | percent ([3]; rapamycin 20 nM) [%] | percent ([4]; rapamycin 0 nM) [%] | percent ([4]; rapamycin 20 nM) [%]
c1cc(OCCN2CCCCC2)cc(-c2n[nH]c3ccc(-c4nnc[nH]4)cc23)c1 | 9.19 | 2.02 | 16.9 | 12.4 | 24.1 | 6.45 | 11.2 | 7.76
O=C(NC(NC(=S)Nc1ccc(F)c([N+](=O)[O-])c1)C(Cl)(Cl)Cl)C(c1ccccc1)c1ccccc1 (stereo not given) | 58.1 | 62.5 | 62.2 | 56.1 | 0.27 | 10.6 | 0 | 1.31
c1ccc2c(-c3cnn4cc(-c5ccc(N6CCNCC6)cc5)cnc34)ccnc2c1 | 7.39 | 4.89 | 22.9 | 16.9 | 96.9 | 66.3 | 44.6 | 11.8
Oc1ccc(-c2nc(-c3ccc(F)cc3)c(-c3ccncc3)[nH]2)cc1 | 15.8 | 5.28 | 10.6 | 18.6 | 16.2 | 31.7 | 38.2 | 29.2
CC(C)c1ccc(/C=N/NC(=O)c2ccc(O)cc2)cc1 | 5.24 | 1.77 | 4.95 | 0.53 | 81.2 | 18.6 | 45.5 | 34.2
Nc1nccc(-c2ccc3noc(-c4ccc(Cl)cc4)c3c2)n1 [PIM 1 Inhibitor 2] | 11.5 | 20.8 | 16.7 | 23.1 | 27.6 | 12.1 | 29.3 | 21.9
CN(C)CC(C)(C)CNc1nn2c(-c3ccccc3)nnc2cc1C1CCC1 | 6.52 | 8.13 | 15.1 | 6.19 | 29.4 | 20.7 | 17.9 | 27.9
Cc1cccc(-c2nn(C(=S)Nc3ccccc3)cc2-c2ccnc3ccccc23)n1 | 4.93 | 15.1 | 15.9 | 12.9 | 24.1 | 9.27 | 8.47 | 11.2
N#Cc1c(NC(=O)c2cccc3ccccc23)sc2c1CCCC2 | 40.8 | 39 | 36 | 40.6 | 3.2 | 0.56 | 7.36 | 8.49
CCNC(=O)c1noc(-c2cc(C(C)C)c(O)cc2O)c1-c1ccc(CN2CCOCC2)cc1 | 28.6 | 37.6 | 73.5 | 46.1 | 0.71 | 0.56 | 0 | 0
O=C(Nc1cccc(Nc2ncc(Br)c(NCCc3cnc[nH]3)n2)c1)N1CCCC1 | 23.9 | 23 | 56.3 | 43.9 | 14.7 | 10.7 | 1.75 | 2.93
NC(=O)c1ccc(-c2nc(-c3ccc4c(c3)OCCO4)c(-c3ccccn3)[nH]2)cc1 | 14.8 | 6.54 | 34.5 | 18.8 | 33.3 | 29.4 | 5.95 | 16.2
C[C@@H](N)c1ccc(C(=O)Nc2ccnc3[nH]ccc23)cc1 | 5.31 | 9.2 | 28 | 21.1 | 88.4 | 4.6 | 59.6 | 0
COc1cc(SC)ccc1C(=O)N1CCC(Cc2ccccc2)CC1 | 17.6 | 12.9 | 10.5 | 12.1 | 18.9 | 26.3 | 33.2 | 43.2
CCCCCCCC(=O)OCCOC(=O)CCCCCCC [Dioctanoylglycol] | 7.58 | 10.2 | 6.23 | 12.5 | 16.9 | 11.7 | 43.6 | 11.1
CCOc1cc(N2CCC(O)CC2)ccc1Nc1ncc2c(n1)N(C)c1ccccc1C(=O)N2C | 7.94 | 0.64 | 3.55 | 9.9 | 88.4 | 91.4 | 62.1 | 66.7
O=[N+]([O-])c1ccc(-c2nc(-c3ccc(F)cc3)c(-c3ccncc3)[nH]2)cc1 | 12.6 | 6.74 | 8.65 | 13.5 | 23.7 | 19.1 | 21.6 | 9.93
COCC(=O)NC/C=C/c1ccc2ncnc(Nc3ccc(Oc4ccc(C)nc4)c(C)c3)c2c1 | 9.5 | 7.14 | 12.9 | 5.7 | 34.8 | 36.3 | 20.1 | 26.6
COc1cc(OC)c(C=C2C(=O)Nc3ccccc32)c(OC)c1 | 14.3 | 28.9 | 27 | 44.8 | 0 | 1.73 | 0 | 2.86
CNc1cc2c(Nc3cccc(Br)c3)ncnc2cn1 | 23.5 | 20.9 | 17 | 17.3 | 16.9 | 11.9 | 17.8 | 5.67
COc1cc2c(Nc3ccc(NC(=O)c4ccccc4)cc3)ncnc2cc1OCCCN1CCOCC1 | 10.1 | 16.9 | 39.9 | 32.9 | 38.3 | 50 | 0.6 | 20.8
NC(=O)c1cccc(N)c1 [3-Aminobenzamide, 3-ABA, INO-1001] | 19.8 | 12.1 | 10.4 | 19.7 | 56 | 25.4 | 44.1 | 45.2
